# Read counts are not given, so values of variants with three or more changes are uncertain.
# B1: OR4K15 (parent)
# chain: GUUAACGGUCAUAGGCCAUGGAAACUAGGAGCACCAUUUCGCUGCCAGUGAAGAAAUGAACAAAGAAAAUCUGGGCCAGGCAGGCAUCAAAAGAAAUAGUCUUGCGCUCAACCAGAAAGUCUGUAAUCAUUUUAAGGGUA
# Variants of: B1
# Test: self-cleavage, relative activity (ratio to wild type); higher = more cleavage; in vitro, sequencing; the parent is a self-cleaving ribozyme
row,Variant,self-cleavage
1,A78G A86G A89G A90G,0.22
2,A47C U97C U108A,0.01
3,A47U A68G A110G,0.1
4,A95G U120C U132C,1.79
5,C77U U87A A98G,0.66
6,A60G A63C C77U A92G,2.06
7,U9C A63G U70A U122C,1.21
8,U57G A68U A111U,0.08
9,A52G A55G U72C C81U A89U,0.14
10,U37C A69G A111G,0.04
11,U49C U108C A126G,0
12,A59G A90G A117G A118G,0.79
13,A54G A78U U87A,0.2
14,A11C A68G U103C U131C,0.04
15,A5G A95G A116G,0.76
16,A33G A69G U70C,0.43
17,G8A A33G A64U U72A,0.21
18,G31A A91G A94G,1.72
19,A33G C34A U120C A135G,0.66
20,A78G U87A A89G A114G U122G G137U,0.02
21,U9C G48C A52G,0.94
22,U9C U39A A96G U131C,1.75
23,A47U A63U A135G,1.09
24,A24C G29A U57A,1.69

row,Variant,self-cleavage
1,A91G A92G U132C,1.18
2,C10U A23G U43C A51G,0.62
3,U9G A60G U72C,0.21
4,U2C A11U U19G A22G U103C A116G U120G U122A U133C,0.12
5,A56G U70C G79A,0.25
6,A24U A56U G119A,1.17
7,A13C A90G A94G,1.42
8,U3C U43C A94G,0.4
9,C71G A96G A118G,0.17
10,A23G A69G A98C U131C,1.26
11,A18G A116G A140G,0.58
12,U9C A23U C101A C105G,0.02
13,A30G A64G A68G A116U U120C,0.59
14,A24C A54G C85U U87A A95G A110G,0.11
15,A11G A47C A55U,0.76
16,A13G A56G A89U A91G A114G,0.49
17,A51G A52G A56G A67G U72A,0
18,A86G U108A U122C,0
19,A11G A18G G41A A118G,0.92
20,A5G U57C G137A,1.78
21,A13U A22G U38C A51U U70C A90G A94G U132A,0.48
22,A89G A129U U130C,0.94
23,A13G A68G A89G U132A,1.14
24,U12C A69G A110G U127A,0.52

row,Variant,self-cleavage
1,U19C A62G U120C,0.51
2,U19A A56U A69G A114U,0.05
3,A55G A78G A90U A116U A126G,0.08
4,U43A A129G U139C,0.97
5,A13U C16G A116G,0.92
6,A33G A51G A117G,1.05
7,U108C U124C A126C,0
8,U39C A86G U102C A110G,0.24
9,A78G A114U A118G,0.01
10,U2C A33G A55U A110G,0.1
11,U19C A86G G106U,0.04
12,A60G G80A A117G,0.22
13,A55G A56U U120C,0.47
14,U12A A62G A92G,1.28
15,U2C A22U A52G,0.85
16,A66G A69G A78C,0.43
17,A47G A64G A110G,0.09
18,A23G A117G A129G,0.39
19,U57A A90G U132C,0.95
20,A82U A96G A116G,0.13
21,U9C C40A A91G A96G,1.62
22,A68G A86G A95G A116G,1.11
23,G20A G21U A126C,0.88
24,A23G A92G A114C,0.01

row,Variant,self-cleavage
1,A27U A91G A111U A126G,0.06
2,A55G U108C A114U,0
3,U2A A24G U70A,0.9
4,A66G A82G U131C,0.26
5,A27G A47U A91G A116U A118U U122C,0
6,A59G U100A C128A,0.48
7,A92G U103G U133C,0.02
8,U9C A30G U57C A68G,1.13
9,U3C U38C A82G A126G,0.17
10,U38C G41U U57C,2.83
11,A54G A89G U133C,1.55
12,A4G A13G U49C,0.75
13,A82G A94G U108C U127C,0
14,A23G A51G A59G A67G,1.67
15,A92G A117G U120C G123A,0.52
16,A47U U72C C81U,0.23
17,A54G A64G A67G U87C U102A A116G A135U,0.05
18,U2C G58A G84A,2
19,G48A A62C U122C U127C,0.79
20,A4G C45A A126G,0.93
21,A30G U39C A64G U102C,1.12
22,U2C A24G G115U,0.27
23,U37C C46U A67U A89G A96G,1.31
24,U39C A82G A98U C112U,0.03

row,Variant,self-cleavage
1,A69C A116G A117G,1.14
2,A36U U43C U70C A90U U108C A118G,0.01
3,A22G A23G A54U A86G U108C A126G,0
4,U87C A96G U130C A135G,1.41
5,U39C A51G A55G G73A,0.24
6,A47U A62G A78G U132C,0.19
7,U38C A86G A94G,0.68
8,U12C A60G A96G U103C,0.55
9,A23G A78G A86U A134G,0.27
10,U37C U70C U127C,0.2
11,A30G A51U U57C U87C,1.22
12,A13G C81U U100C U108C,0.04
13,A67U A95G U100C,2.79
14,G48A U57C U102C,1.98
15,A24G A68G A90G A116G,0.22
16,U57C A117G A134G,1.36
17,A111G U122C U132C,0.01
18,U2A A52G A86G,0.93
19,U2C A86U U124C,1.41
20,A54U A82G A94G U108C U124C U130C,0
21,A63G A111G U131C,0.01
22,A13U A18C A22G A68G,0.91
23,A18U G50U A67G,1.14
24,A27G U49C G53U A60G A82U C121G,0.2

row,Variant,self-cleavage
1,G1U U38A U49C A55G U57C A86G,0.87
2,A13G A18G A47G A78G A94U,0.48
3,U9C A82G A96G A114G,0.52
4,A22G A118G U130C,0.59
5,A52G A59G A60U,0.14
6,C46U A82G U122A A129G,0.14
7,A18U A92G A110U,0.42
8,A52G A59U A68U,1.78
9,A47U U57A A60G A82U U102A,0.2
10,A62G A91G A125C,1.13
11,U19C A22U A24G A90G A117G,1.29
12,U3C A90U U133C,1.4
13,A13G A33G A78U A90G U108C U120C,0.01
14,A27G U43C U72C A118G,0.15
15,A4G A18U U26C,1.23
16,G48A A55G A69G,0.7
17,C10U C34U A82G,0.56
18,A68U A117G U132C,2.15
19,A22G A78U U120C U132C,0.08
20,A47U A82G A90U,0.47
21,G74A A78U U130C,0.14
22,U102C U122C A140G,1.46
23,A68G G106C U120A,0.02
24,A4G A30U U43C U130C,1.13

row,Variant,self-cleavage
1,U19G A55U A64G,1.56
2,A22G A54U A60G A69C A96G A118G,0.04
3,A30U A62G A110G G138A,0.09
4,A24G A78U U130C,0.11
5,U2A A64G U70C A91G A125G,0.11
6,C76A U100C A114U A116U,0
7,C46A A51U A96U,0.91
8,A18U A56G A82C A91G,0.13
9,A23G U38C U108C,0.05
10,U19G U100C A111G,0.07
11,A5G A11G U37C U57C,0.55
12,A4G U39A U130C,1.72
13,A18G U39A A69G A82G A117U U133G,0.91
14,A36C A69U A86G U100C U102C,2.52
15,A11C U108C U130C,0
16,A86G U87A A116G A129G,0.31
17,A36U C61U A89G U102C,2.6
18,A18U A78G U108A U139A,0.03
19,U12C U70C G136A,0.36
20,U3C A11U A52G,1
21,A33U U70C A98G A135U,0.19
22,C10U C32U U87C,1.56
23,A54G A90C A94G,2.13
